The list shows a part of the results. Sequences were assembled here from the parent chain. Inactive controls read about 0.05.
B1: TEV protease; numbered along this chain (parent)
chain: MGESLFKGPRDYNPISSSICHLTNESDGHTTSLYGIGFGPFIITNKHLFRRNNGTLVVQSLHGVFKVKDTTTLQQHLVDGRDMIIIRMPKDFPPFPQKLKFREPQREERICLVTTNFQTKSMSSMVSDTSCTFPSGDGIFWKHWIQTKDGQCGSPLVSTRDGFIVGIHSASNFTNTNNYFTSVPKNFMELLTNQEAQQWVSGWRLNADSVLWGGHKVFMVKPEEPFQPVKEATQL

Variants of: B1
Test: raw area under fraction-flipped curve 0-4 h after induction (AUC4h, not background-subtracted), DNA-recorder readout of cleavage of the substrate (dimensionless); higher = more cleavage of the substrate by the protease variant
Conditions: temperature: 34 °C; time window: 0-4 h after rhamnose induction
Experimental: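 In vivo DNA recorder in E. coli TOP10(DE3) ΔrhaA at 34 °C. Each TEVp single-site mutant (parent TEVp 0) is paired with a single-site variant of the 7-mer TEVs (canonical ENLYFQ|S). The substrate sits between flexible linkers in a Bxb1-sfGFP-TEVs-SsrA fusion, so cleavage stabilises Bxb1 and speeds flipping of a recombination array, read by NGS. The value is the raw area under the fraction-flipped curve over 0-4 h after rhamnose induction (AUC4h), with ≥20 reads per time point. It is not background-subtracted; inactive controls average about 0.047.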
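Also: Bxb1 expression induced with 0.2% (w/v) L-rhamnose at OD600 near 0.5, cultures sampled hourly, flipped fraction per protease–substrate barcode pair counted by paired-end Illumina sequencing.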

MDESLFKGPRDYNPISSSICHLTNESDGHTTSLYGIGFGPFIITNKHLFRRNNGTLVVQSLHGVFKVKDTTTLQQHLVDGRDMIIIRMPKDFPPFPQKLKFREPQREERICLVTTNFQTKSMSSMVSDTSCTFPSGDGIFWKHWIQTKDGQCGSPLVSTRDGFIVGIHSASNFTNTNNYFTSVPKNFMELLTNQEAQQWVSGWRLNADSVLWGGHKVFMVKPEEPFQPVKEATQL [G2D]
area with substrate CNLYFQS: 0.0764
area with substrate DNLYFQS: 0.0807
area with substrate GNLYFQS: 0.076
area with substrate HNLYFQS: 0.0649
area with substrate INLYFQS: 0.0999
area with substrate KNLYFQS: 0.0865
area with substrate LNLYFQS: 0.0536
area with substrate MNLYFQS: 0.0739
area with substrate PNLYFQS: 0.0645
area with substrate SNLYFQS: 0.0653
area with substrate TNLYFQS: 0.0795
area with substrate WNLYFQS: 0.0489
area with substrate YNLYFQS: 0.0687

MGETLFKGPRDYNPISSSICHLTNESDGHTTSLYGIGFGPFIITNKHLFRRNNGTLVVQSLHGVFKVKDTTTLQQHLVDGRDMIIIRMPKDFPPFPQKLKFREPQREERICLVTTNFQTKSMSSMVSDTSCTFPSGDGIFWKHWIQTKDGQCGSPLVSTRDGFIVGIHSASNFTNTNNYFTSVPKNFMELLTNQEAQQWVSGWRLNADSVLWGGHKVFMVKPEEPFQPVKEATQL [S4T]
area with substrate CNLYFQS: 0.0724
area with substrate DNLYFQS: 0.0072
area with substrate FNLYFQS: 0.0645
area with substrate HNLYFQS: 0.0677
area with substrate MNLYFQS: 0.0779
area with substrate SNLYFQS: 0.0626
area with substrate TNLYFQS: 0.0651
area with substrate WNLYFQS: 0.0461
area with substrate YNLYFQS: 0.0646

MGEWLFKGPRDYNPISSSICHLTNESDGHTTSLYGIGFGPFIITNKHLFRRNNGTLVVQSLHGVFKVKDTTTLQQHLVDGRDMIIIRMPKDFPPFPQKLKFREPQREERICLVTTNFQTKSMSSMVSDTSCTFPSGDGIFWKHWIQTKDGQCGSPLVSTRDGFIVGIHSASNFTNTNNYFTSVPKNFMELLTNQEAQQWVSGWRLNADSVLWGGHKVFMVKPEEPFQPVKEATQL [S4W]
area with substrate CNLYFQS: 0.0547
area with substrate DNLYFQS: 0.0705
area with substrate GNLYFQS: 0.0772
area with substrate HNLYFQS: 0.0647
area with substrate INLYFQS: 0.0912
area with substrate KNLYFQS: 0.0769
area with substrate LNLYFQS: 0.0635
area with substrate MNLYFQS: 0.0652
area with substrate NNLYFQS: 0.0623
area with substrate PNLYFQS: 0.0749
area with substrate TNLYFQS: 0.0638
area with substrate WNLYFQS: 0.058
area with substrate YNLYFQS: 0.0654

MGESLMKGPRDYNPISSSICHLTNESDGHTTSLYGIGFGPFIITNKHLFRRNNGTLVVQSLHGVFKVKDTTTLQQHLVDGRDMIIIRMPKDFPPFPQKLKFREPQREERICLVTTNFQTKSMSSMVSDTSCTFPSGDGIFWKHWIQTKDGQCGSPLVSTRDGFIVGIHSASNFTNTNNYFTSVPKNFMELLTNQEAQQWVSGWRLNADSVLWGGHKVFMVKPEEPFQPVKEATQL [F6M]
area with substrate CNLYFQS: 0.0643
area with substrate DNLYFQS: 0.0751
area with substrate FNLYFQS: 0.0643
area with substrate GNLYFQS: 0.0638
area with substrate HNLYFQS: 0.0914
area with substrate INLYFQS: 0.067
area with substrate LNLYFQS: 0.0601
area with substrate PNLYFQS: 0.0655
area with substrate QNLYFQS: 0.0676
area with substrate SNLYFQS: 0.0578
area with substrate VNLYFQS: 0.0666
area with substrate WNLYFQS: 0.0535
area with substrate YNLYFQS: 0.0827

MGESLQKGPRDYNPISSSICHLTNESDGHTTSLYGIGFGPFIITNKHLFRRNNGTLVVQSLHGVFKVKDTTTLQQHLVDGRDMIIIRMPKDFPPFPQKLKFREPQREERICLVTTNFQTKSMSSMVSDTSCTFPSGDGIFWKHWIQTKDGQCGSPLVSTRDGFIVGIHSASNFTNTNNYFTSVPKNFMELLTNQEAQQWVSGWRLNADSVLWGGHKVFMVKPEEPFQPVKEATQL [F6Q]
area with substrate CNLYFQS: 0.0684
area with substrate DNLYFQS: 0.0629
area with substrate GNLYFQS: 0.076
area with substrate KNLYFQS: 0.0814
area with substrate LNLYFQS: 0.0698
area with substrate MNLYFQS: 0.0715
area with substrate PNLYFQS: 0.0668
area with substrate SNLYFQS: 0.062
area with substrate WNLYFQS: 0.0611

MGESLVKGPRDYNPISSSICHLTNESDGHTTSLYGIGFGPFIITNKHLFRRNNGTLVVQSLHGVFKVKDTTTLQQHLVDGRDMIIIRMPKDFPPFPQKLKFREPQREERICLVTTNFQTKSMSSMVSDTSCTFPSGDGIFWKHWIQTKDGQCGSPLVSTRDGFIVGIHSASNFTNTNNYFTSVPKNFMELLTNQEAQQWVSGWRLNADSVLWGGHKVFMVKPEEPFQPVKEATQL [F6V]
area with substrate CNLYFQS: 0.0703
area with substrate DNLYFQS: 0.0928
area with substrate FNLYFQS: 0.0641
area with substrate HNLYFQS: 0.0846
area with substrate LNLYFQS: 0.0914
area with substrate PNLYFQS: 0.0593
area with substrate QNLYFQS: 0.0669
area with substrate SNLYFQS: 0.0755
area with substrate TNLYFQS: 0.0728
area with substrate VNLYFQS: 0.0807
area with substrate WNLYFQS: 0.0741
area with substrate YNLYFQS: 0.0504

MGESLYKGPRDYNPISSSICHLTNESDGHTTSLYGIGFGPFIITNKHLFRRNNGTLVVQSLHGVFKVKDTTTLQQHLVDGRDMIIIRMPKDFPPFPQKLKFREPQREERICLVTTNFQTKSMSSMVSDTSCTFPSGDGIFWKHWIQTKDGQCGSPLVSTRDGFIVGIHSASNFTNTNNYFTSVPKNFMELLTNQEAQQWVSGWRLNADSVLWGGHKVFMVKPEEPFQPVKEATQL [F6Y]
area with substrate CNLYFQS: 0.063
area with substrate DNLYFQS: 0.0825
area with substrate FNLYFQS: 0.0537
area with substrate HNLYFQS: 0.044
area with substrate KNLYFQS: 0.063
area with substrate PNLYFQS: 0.0756
area with substrate VNLYFQS: 0.0608
area with substrate WNLYFQS: 0.0449
area with substrate YNLYFQS: 0.0602

MGESLFKGKRDYNPISSSICHLTNESDGHTTSLYGIGFGPFIITNKHLFRRNNGTLVVQSLHGVFKVKDTTTLQQHLVDGRDMIIIRMPKDFPPFPQKLKFREPQREERICLVTTNFQTKSMSSMVSDTSCTFPSGDGIFWKHWIQTKDGQCGSPLVSTRDGFIVGIHSASNFTNTNNYFTSVPKNFMELLTNQEAQQWVSGWRLNADSVLWGGHKVFMVKPEEPFQPVKEATQL [P9K]
area with substrate CNLYFQS: 0.0565
area with substrate DNLYFQS: 0.0675
area with substrate FNLYFQS: 0.0546
area with substrate HNLYFQS: 0.0528
area with substrate INLYFQS: 0.0623
area with substrate KNLYFQS: 0.0657
area with substrate LNLYFQS: 0.0723
area with substrate NNLYFQS: 0.0814
area with substrate RNLYFQS: 0.0546
area with substrate VNLYFQS: 0.078
area with substrate WNLYFQS: 0.0498
area with substrate YNLYFQS: 0.061

MGESLFKGYRDYNPISSSICHLTNESDGHTTSLYGIGFGPFIITNKHLFRRNNGTLVVQSLHGVFKVKDTTTLQQHLVDGRDMIIIRMPKDFPPFPQKLKFREPQREERICLVTTNFQTKSMSSMVSDTSCTFPSGDGIFWKHWIQTKDGQCGSPLVSTRDGFIVGIHSASNFTNTNNYFTSVPKNFMELLTNQEAQQWVSGWRLNADSVLWGGHKVFMVKPEEPFQPVKEATQL [P9Y]
area with substrate CNLYFQS: 0.0633
area with substrate DNLYFQS: 0.118
area with substrate GNLYFQS: 0.0849
area with substrate HNLYFQS: 0.0659
area with substrate INLYFQS: 0.0537
area with substrate RNLYFQS: 0.0655
area with substrate SNLYFQS: 0.0776
area with substrate TNLYFQS: 0.0695

MGESLFKGPEDYNPISSSICHLTNESDGHTTSLYGIGFGPFIITNKHLFRRNNGTLVVQSLHGVFKVKDTTTLQQHLVDGRDMIIIRMPKDFPPFPQKLKFREPQREERICLVTTNFQTKSMSSMVSDTSCTFPSGDGIFWKHWIQTKDGQCGSPLVSTRDGFIVGIHSASNFTNTNNYFTSVPKNFMELLTNQEAQQWVSGWRLNADSVLWGGHKVFMVKPEEPFQPVKEATQL [R10E]
area with substrate CNLYFQS: 0.0637
area with substrate DNLYFQS: 0.0316
area with substrate GNLYFQS: 0.0357
area with substrate HNLYFQS: 0.0665
area with substrate INLYFQS: 0.0554
area with substrate LNLYFQS: 0.0659
area with substrate PNLYFQS: 0.0623
area with substrate RNLYFQS: 0.0594
area with substrate SNLYFQS: 0.0785
area with substrate TNLYFQS: 0.0658
